Measurements reported in PubChem BioAssay AID1346428 (National Center for Advancing Translational Sciences (NCATS), 2018).
Among all 48,000 compounds or so, about 1,200 (2.5%) were called active. Roughly 2% stayed inconclusive and do not appear here.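 Rule for the calls: active = activation of at least 60% and not above a set upper limit (about 1 call in 100 departs from these limits); inconclusive = activation of 40% to 60%, or above that upper limit; inactive = activation under 40%.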 This is one part of the list.

target: Probable G-protein coupled receptor 32 (Homo sapiens) (UniProt O75388); assay: qHTS for Agonists of Human Resolvin D1 Receptor DRV1; conditions: CHO-K1 GPR32 beta-arrestin PathHunter luminescence, 90 min; at 76.9 µM; active compounds read high; zero percent set by DMSO-only wells; note: 0% is about no effect
Chain of UniProt O75388 (O75388 whole entry, looked up): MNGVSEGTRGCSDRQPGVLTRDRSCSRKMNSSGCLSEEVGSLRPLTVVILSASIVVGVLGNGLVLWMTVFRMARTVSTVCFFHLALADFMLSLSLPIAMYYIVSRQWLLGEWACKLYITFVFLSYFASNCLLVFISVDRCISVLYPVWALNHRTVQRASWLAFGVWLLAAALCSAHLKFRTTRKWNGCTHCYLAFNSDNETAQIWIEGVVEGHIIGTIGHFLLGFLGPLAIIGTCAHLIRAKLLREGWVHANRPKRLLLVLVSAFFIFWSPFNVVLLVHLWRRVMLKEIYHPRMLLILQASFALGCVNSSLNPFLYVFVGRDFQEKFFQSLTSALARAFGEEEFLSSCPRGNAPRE
How it was run: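 PathHunter beta-arrestin recruitment in CHO-K1 cells stably expressing ProLink-tagged GPR32. Cells were exposed to compound for 90 min at 37 C, then chemiluminescence was read after 1 h detection at ambient temperature; DMSO served as basal control.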

SMILES	activation
Cc1ccc2oc(-c3ccc(C)c(NC(=O)c4ccc(N5CCC(C)CC5)c([N+](=O)[O-])c4)c3)nc2c1	inactive: -0.0961%
Cc1cccc(NC(=O)c2ccc3snnc3c2)c1C	inactive: -23.5%
O=c1c2cc3c(cc2n(Cc2ccc(F)cc2)c(=O)n1Cc1nc(-c2ccccc2)no1)OCO3	inactive: -4.86%
CC(C)CN(CCCNC(=O)CN1N=C(c2ccc(Cl)cc2)CCC1=O)CC(C)C	inactive: -15.7%
COc1ccc2c(c1)CCc1c(C(=O)Nc3c(C)nn(Cc4ccccc4C)c3C)noc1-2	inactive: 9.65%
Clc1ccc2c(c1)NC(c1ccncc1)=NC(c1cccs1)=N2	inactive: -26.7%
COC(=O)c1c(SC)nc2ccccc2c1OCc1ccc(Cl)cc1	inactive: -10.2%
CCOc1ccccc1NC(=O)C(CC(C)C)NS(=O)(=O)c1ccc2c(c1)oc(=O)n2C (stereo not drawn)	inactive: 5.85%
COc1cc(CNC(=O)c2ccc3nc(CCc4ccccc4)oc3c2)cc(OC)c1OC	inactive: -28.6%
CCN1CCN(C(=O)c2cnn(-c3cccc(Cl)c3)c2C2CCN(C(=O)OC(C)(C)C)CC2)CC1	inactive: -7.11%
CNS(=O)(=O)c1cn(CC(=O)N2CCN(c3cccc(C)c3C)CC2)cc1S(=O)(=O)NC	inactive: -5.54%
Cc1ccc(S(=O)(=O)N(Cc2nc(-c3cccc(C)c3)no2)C2CCCCC2)cc1	inactive: -22.6%
O=c1cc(-c2ccccc2)nc(SCc2nc(-c3ccc(Cl)cc3)no2)[nH]1	inactive: -3.66%
O=C(COCc1cc(-c2ccc3c(c2)OCO3)on1)N1CCN(c2cccc(Cl)c2)CC1	inactive: -10.3%
Cc1ccsc1C(=CCCN1CCC[C@@H](C(=O)O)C1)c1sccc1C	inactive: -2.94%
COc1ccccc1CCNC(=O)C1CCN(c2nnc(-n3cccc3CNc3ccc(C)cc3)s2)CC1	inactive: -33.6%
COc1ccc(N2CCN(c3csc4ccc(Cl)cc4c3=O)CC2)cc1	inactive: -38.7%
COc1ccc(Cl)cc1NC(=O)c1cn(C2CCCCC2)c(=O)c2c1c1ccccc1n2C	inactive: 10.8%
CCOc1ccc(Nc2nc3cc(Cl)c(Cl)cc3nc2-n2nc(C)cc2C)cc1	inactive: -0.122%
Cc1c(C(=O)N(Cc2ccc(N(C)C)cc2)CC2CCCO2)oc2ccc(Cl)cc12 (stereo not drawn)	inactive: -22.5%
NS(=O)(=O)c1ccc(NC(=O)CN2C(=O)COc3ccc(Cl)cc32)cc1	active: 92.8%
Cc1ccc(C)c(S(=O)(=O)c2nnn3c2nc(NC(C)C)c2sccc23)c1	inactive: -9.93%
O=C(O)c1ccc2nc(-c3cc4cccc(O)c4oc3=O)[nH]c2c1	inactive: -14.5%
COc1ccc(CNC(=O)c2cc(-c3ccc(C)cc3)nc3n[nH]c(-c4ccc(Br)cc4)c23)cc1	inactive: -8.82%
CCN(c1ccccc1)c1ccc2cc(S(=O)(=O)N3CCCC3)ccc2n1	inactive: -13.6%
Cc1ccc(-n2nc(CO)c(C(=O)NCCCc3ccccc3)n2)cc1C	inactive: -23.5%
COc1ccccc1Cn1cc(C(=O)c2ccc(C)cc2)c(=O)c2cc(C)ccc21	inactive: 6.81%

SMILES	activation
CCOC(=O)c1c(C)[nH]c(C)c1S(=O)(=O)N1CCCC(C(=O)Nc2ccc(C)cn2)C1 (stereo not drawn)	inactive: -2.99%
CCOc1ccc(Nc2ncnc3c2nc2n3CCCC2)cc1	inactive: 12.3%
O=C1OC(CN2CCOCC2)CN1/N=C/c1ccc([N+](=O)[O-])o1 (stereo not drawn)	inactive: 11.9%
CCc1ccccc1Nc1nn2c(=O)c3ccc(C(=O)NCc4ccccc4OC)cc3nc2s1	inactive: 4.15%
CCOc1ccc(NC(=O)CSc2ccc(-c3sc(-c4ccccc4)nc3C)nn2)cc1	inactive: -13.1%
CCOc1ccccc1CNC(=O)c1c(C)oc2ncnc(N3CCOCC3)c12	inactive: -10.7%
Cc1ccccc1C(=O)NC1(C(F)(F)F)N=C(c2ccccc2)N(C2CCCCC2)C1=O (stereo not drawn)	inactive: -10.8%
CCOc1ccc2nc(Cl)c(C3CC(c4ccc(OC)cc4)=NN3S(C)(=O)=O)cc2c1 (stereo not drawn)	inactive: -9.78%
CCOC(=O)CNC(=O)Nc1cc(C(=O)NCc2ccccc2OC)ccc1N1CCCC1	inactive: -12.8%
CCOC(=O)c1oc2ccc(S(=O)(=O)n3nc(-c4cc(OC)c(OC)c(OC)c4)cc3N)cc2c1C	inactive: -16.3%
CC(C)C(=O)Nc1ccccc1OCc1cc(=O)n2ccccc2n1	inactive: -7.69%
COc1ccc(Cl)cc1NC(=O)C1CCCN(c2ncnc3onc(C)c23)C1 (stereo not drawn)	inactive: 5.32%
CCOc1ccc(NC(=O)C2CCCN(c3ccc(Sc4ccc(C)cc4)nn3)C2)cc1 (stereo not drawn)	inactive: 9.69%
O=C(NC(=O)c1ccccc1)Nc1ccc(-c2cc(C(F)(F)F)nn2-c2ccccc2)cc1	inactive: 0.839%
COC(=O)C(CCSC)NC(=O)c1cc2c(n(-c3ccc(Cl)cc3)c1=O)CCCC2=O (stereo not drawn)	inactive: 15.5%
CCC(Oc1ccccc1F)C(=O)N1CCC(c2nc3ccccc3s2)CC1 (stereo not drawn)	inactive: 48.5%
Cc1cccc(N(C)C(=O)CCS(=O)(=O)c2ccc3c(c2)oc(=O)n3C)c1	inactive: -1.11%
CCOC(=O)c1c(S(=O)(=O)N2CCC(C(=O)NCc3ccc(F)cc3)CC2)c(C)n(C)c1C	inactive: 6.3%
CN(C)S(=O)(=O)c1ccc2c(c1)N(CC(=O)Nc1ccc(OC(F)(F)F)cc1)C(=O)CS2	inactive: 0.997%
COc1ccc(OCC(=O)NC2CC(=O)N(c3cccc(OC)c3)C2)cc1 (stereo not drawn)	inactive: -8.93%
CCCN(CCC)CC(O)Cn1cc(/C=C/C(=O)c2ccc(C)cc2)c2ccccc21 (stereo not drawn)	inactive: -11.4%
CC(C(=O)NCc1ccc(Cl)cc1)n1ccc2cc(S(=O)(=O)N3CCCCCC3)ccc21 (stereo not drawn)	inactive: -7.69%
COc1ccc(NC(=O)c2cc(S(=O)(=O)N3CCCCCC3)cn2C)c(OC)c1	inactive: 27.7%
COc1ccc(NC(=O)CN2CCN(Cc3ccc(F)cc3)S2(=O)=O)cc1Cl	inactive: 46.9%
CCN(CC)CCOc1ccccc1C(=O)CCc1ccccc1	active: 107%
COc1ccc(OC)c(CNC(=O)c2c3c(nc4ccccc24)C(=O)N(C2CCCCC2)C3)c1	inactive: 1.84%
